The source of these data is PMC3249379 (Frontiers in Molecular Neuroscience, 2011).

This series deals with the molecule itself. Kind of series: SEC. In general terms: In gel filtration, larger molecules generally elute earlier.

B1: GluA2-Q (Q/R unedited version of the GluA2 flop AMPA receptor subunit), homotetrameric receptor (receptor)
chain: not shown
One may read the stoichiometry N as a count of units in the complex or per binding partner. For B1, the “stoichiometry N” value worked out at 4.
